According to patent publication US11446308B2, “Methods and compositions for the prevention and treatment of hearing loss” (St. Jude Children's Research Hospital, priority 2015, dated 2022):

What was measured:
[1] = system: outer hair cells (OHCs) in mouse cochlear explants; assay: Protection against cisplatin-induced hair cell loss in neonatal (P3) mouse cochlear explants; type: cell-based; conditions: for OHC survival: 24 hr cisplatin co-treatment
[2] = system: hair cells in mouse cochlear explants; conditions: 24 h
[3] = target: Cdk2 immunoprecipitated from HEI-OC cells (Mus musculus, UniProt P97377); assay: CDK2 kinase activity in vitro, phosphorylation of histone H1; type: biochemical; conditions: increasing doses, with or without cisplatin treatment of cells
[4] = system: hair cells in zebrafish lateral line neuromasts; conditions: 5-dpf larvae
Procedure: The experiments were performed with 5-dpf larval zebrafish of the *AB wild-type strain. Dose-response studies were performed to find the cisplatin concentration at which most of the hair cells in each neuromast were killed in the absence of a protective compound and at the same DMSO concentration (<0.2%).
Experiments were performed in 24-well plates with 5 fish per well in volumes of 1-2 mL. Fish were incubated with 5 μM and stained with 0.005% DASPEI vital dye for 15 minutes. After two washes with egg water, fish were visualized in an epiflourescence microscope. […] Results were plotted as percent survival of hair cells in the cisplatin-treated fish relative to the untreated fish (FIG. 4A-E).

[5] = system: hair cells in zebrafish lateral line neuromasts; assay: Protection against cisplatin-induced hair cell loss in zebrafish lateral lines in vivo; conditions: 5 μM cisplatin
HEI-OC1 cells = conditions: mouse, 22 h
[6] = system: mouse medulloblastoma neurosphere lines and human neuroblastoma cell lines; assay: Interference with cisplatin's killing function in tumor cell lines (Cell Titer Glo); type: cell-based; conditions: 48 hours, cisplatin 23 μM, compound 3×IC50
Procedure: FIG. 11 addresses interference with cisplatin's killing function in tumors. Four neurosphere lines derived from mouse medulloblastoma (MB) and two human neuroblastoma (NB) cell lines were tested. HEI-OC1 cell line was tested as controls.
Table 1 lists the top 18 compound hits in the screen in terms of high potency and low toxicity. The top ten compounds were further evaluated by a viability assay (Cell Titer Glo, Promega) in medulloblastoma neurosphere cell lines and neuroblastoma cell lines to test whether they inhibit the ability of cisplatin to kill the tumor cells. The majority had no antagonistic effect on cisplatin's antitumor activity (data not shown) and are therefore safe to use systemically together with cisplatin during chemotherapy to protect against cisplatin-induced hearing loss.

CDK2 = CDK2 (Homo sapiens, UniProt P24941); conditions: ATP-competitive; cited from earlier work

| Compound | protection against cisplatin-induced hair cell loss in cochlear explants ([1]; 50 μM cisplatin, 24 hrs) | OHC survival [1] [%] | IC50 ([1]; P3 cochlear explants, 50 μM cisplatin, 24 hrs, read-out: Mouse Explant IC50) [nM] | comparison with germline CDK2 knockout explants ([1]; cisplatin plus kenpaullone, WT and CDK2 KO cochleae) | Explant Cisplatin LD50 [2] [µM] | Mouse Explant LD50 [2] [µM] | CDK2 kinase activity [3] | Zebrafish LD50 [4] [µM] | protection of zebrafish neuromasts against cisplatin-induced hair cell loss [5] | IC50 ([5]; Danio rerio, 5-dpf larvae) [µM] | HEI-OC1 LD50 (HEI-OC1 cells) [µM] | interference with cisplatin anti-tumor activity [6] | IC50 (CDK2) [nM] |
| --- | --- | --- | --- | --- | --- | --- | --- | --- | --- | --- | --- | --- | --- |
| O=C1Cc2c([nH]c3ccc(Br)cc23)-c2ccccc2N1 [Compound 4, Kenpaullone] | protect against cisplatin-induced hair cell loss | 100 | ~150 | phenocopies CDK2 knockout resistance to cisplatin ototoxicity | > 30 | >30 | inhibits CDK2 kinase activity | <90 | significant protection | ~30 | >40 | – | – |
| NS(=O)(=O)c1ccc(NN=C2C(=O)Nc3cc(Br)ccc32)cc1 [Compound 12, CDK2 inhibitor II] | protect against cisplatin-induced hair cell loss | 100 | – | – | – | >12 | – | >50 | – | – | >40 | no interference in all tumor cell lines | 60 |
